Measured values published in the supplement of paper PMC10670038.
Several values for one entry are separate records, joined by “and”; a condition that tells them apart may be missing. Identical values can stand only once. Counter-ions that a name gives are not always drawn. ± gives the standard deviation of the averaged measurements. Over roughly 2,000 compounds, “relative cell viability vs DMSO, compound + 0.2 uM CuET” has its median near 1; the lowest 2% begin near 0.25. The list shows a part of the results.

System: TE10
Test: relative cell viability vs DMSO, compound + 0.2 uM CuET (fraction); TE10 is an esophageal squamous carcinoma line; higher = less cytotoxic
Settings: 2 µM; co-treatment: CuET (bis(diethyldithiocarbamate)copper) 0.2 uM; 48 h
Procedure: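 TE10 ESCC cells (1,000/well, 384-well plates) were treated with Selleck bioactive library compounds at 2 uM combined with 0.2 uM CuET (copper diethyldithiocarbamate) for 48 h. Viability was read by CellTiter-Glo and expressed relative to DMSO wells. Two technical replicates (A, B).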

| Compound | relative cell viability |
| --- | --- |
| CCN(CC)CCNC(=O)c1c(C)[nH]c(/C=C2\C(=O)Nc3ccc(F)cc32)c1C [Sunitinib] | 1.14 ± 0.057 |
| CCN(CC)CCNC(=O)c1c(C)[nH]c(/C=C2\C(=O)Nc3ccc(F)cc32)c1C [Sunitinib Malate] | 1.04 ± 0.19 |
| COc1ccc(/C=C/C(=O)Nc2ccccc2C(=O)O)cc1OC [Tranilast] | 1.175 ± 0.0021 |
| CCOc1cc2ncc(C#N)c(Nc3ccc(F)c(Cl)c3)c2cc1NC(=O)/C=C/CN(C)C [Pelitinib (EKB-569)] | 0.908 ± 0.15 |
| Cc1c(N(C)C)c(=O)n(-c2ccccc2)n1C [Amidopyrine] | 1.31 ± 0.1 |
| C=C1C(=O)[C@]23[C@H](O)[C@H]1CC[C@H]2[C@@]12CO[C@]3(O)[C@@H](O)[C@@H]1C(C)(C)CC[C@@H]2O [Oridonin] | 0.6312 ± 0.00067 |
| Cc1cc(/C=C/C#N)cc(C)c1Nc1ccnc(Nc2ccc(C#N)cc2)n1 [Rilpivirine] | 1.06 ± 0.16 |
| Cc1cc(=O)[nH]c(=S)[nH]1 [Methylthiouracil] | 1.01 ± 0.048 |
| CC(=O)[C@H]1CC[C@H]2[C@@H]3C=CC4=CC(=O)CC[C@@]4(C)[C@@H]3CC[C@]12C [Dydrogesterone] | 1.05 ± 0.18 |
| CC[C@]1(O)C[C@H]2CN(CCc3c([nH]c4ccccc34)[C@@](C(=O)OC)(c3cc4c(cc3OC)N(C=O)[C@H]3[C@@](O)(C(=O)OC)[C@H](OC(C)=O)[C@]5(CC)C=CCN6CC[C@]43[C@@H]65)C2)C1 [Vincristine] | 0.701 ± 0.17 |
| Nc1nc(CC(=O)Nc2ccc(CCNC[C@H](O)c3ccccc3)cc2)cs1 [Mirabegron] | 1.17 ± 0.053 |
| COc1ccccc1OCC(O)CO (centres undefined) [Guaifenesin] | 1.01 ± 0.095 |
| Cc1cccc(C)c1OCC(C)N (centres undefined) [Mexiletine HCl] | 1.16 ± 0.051 |
| CN1[C@@H]2CC[C@H]1C[C@@H](OC(=O)c1c[nH]c3ccccc13)C2 [Tropisetron] | 1.05 ± 0.0039 |
| Cc1cc(O)c2c(c1)C(=O)c1cccc(O)c1C2=O [Chrysophanic Acid] | 0.731 ± 0.036 |
| NC(=O)c1cn(Cc2c(F)cccc2F)nn1 [Rufinamide] | 1.26 ± 0.15 |
| CC(C(=O)O)c1ccc(-c2ccccc2)c(F)c1 (centres undefined) [Flurbiprofen] | 1.02 ± 0.069 |
| Cc1c(OCC(F)(F)F)ccnc1C[S@@+]([O-])c1nc2ccccc2[nH]1 [Dexlansoprazole] | 1.09 ± 0.011 |
| CC[C@H]1OC(=O)[C@H](C)[C@@H](O[C@H]2C[C@@](C)(OC)[C@@H](O)[C@H](C)O2)[C@H](C)[C@@H](O[C@@H]2O[C@H](C)C[C@H](N(C)C)[C@H]2O)[C@](C)(O)C[C@@H](C)C(=O)[C@H](C)[C@H]2OC(=O)O[C@@]21C [Erythromycin Cyclocarbonate] | 1.19 ± 0.04 |
| C[C@H]1O[C@@H](O[C@H]2[C@@H](O)C[C@H](O[C@H]3[C@@H](O)C[C@H](O[C@H]4CC[C@@]5(C)[C@H](CC[C@@H]6[C@@H]5C[C@@H](O)[C@]5(C)[C@@H](C7=CC(=O)OC7)CC[C@]65O)C4)O[C@@H]3C)O[C@@H]2C)C[C@H](O)[C@@H]1O [Digoxin] | 0.847 ± 0.015 |
| O=C1c2c(O)cccc2C([C@@H]2O[C@H](CO)[C@@H](O)[C@H](O)[C@H]2O)c2cc(CO)cc(O)c21 (some centres undefined) [Aloin] | 1.1 ± 0.12 |
| O=C(Nc1cccc(C(F)(F)F)c1)Nc1cc(S(=O)(=O)NC2CC2)ccc1-c1ccsc1 | 1.04 ± 0.11 |
| CC(C(=O)O)c1ccc2c(c1)[nH]c1ccc(Cl)cc12 (centres undefined) [Carprofen] | 1.22 ± 0.068 |
| C=CCc1cccc(/C=N/NC(=O)CN2CCN(Cc3ccccc3)CC2)c1O | 0.903 ± 0.21 |
| CC(NC(=O)C(Cc1ccccc1)NC(=O)OCc1ccccc1)C(=O)CF (centres undefined) | 1.14 ± 0.028 |

| Compound | relative cell viability |
| --- | --- |
| CN(C)C(=O)C(CCN1CCC(O)(c2ccc(Cl)cc2)CC1)(c1ccccc1)c1ccccc1 [Loperamide HCl] | 1.03 ± 0.023 |
| Cc1ccccc1C(=O)Nc1ccc(C(=O)N2CCCC(O)c3cc(Cl)ccc32)c(C)c1 (centres undefined) [Tolvaptan] | 1.05 ± 0.075 |
| NC(=O)c1ccc(-c2nc(-c3ccc4c(c3)OCCO4)c(-c3ccccn3)[nH]2)cc1 | 0.996 ± 0.12 |
| O=C1NC(=NCc2cccs2)S/C1=C\c1ccc2ncccc2c1 | 1.12 ± 0.078 |
| CN(C)CC(=O)Nc1ccc2[nH]c(=O)c3ccccc3c2c1 | 1.14 and 1.03 |
| CC(C)(C)NCC(O)COc1cccc2c1CCC(=O)N2 (centres undefined) [Carteolol HCl] | 1.09 ± 0.13 |
| CNC(=O)c1cc(Oc2ccc(NC(=O)Nc3ccc(Cl)c(C(F)(F)F)c3)c(F)c2)ccn1 [Regorafenib (BAY 73-4506)] | 1.05 ± 0.12 |
| O=C(Nc1ccccc1-c1cn2c(CN3CCNCC3)csc2n1)c1cnc2ccccc2n1 | 1.12 ± 0.22 |
| O=C(O)c1cc(/N=N/c2ccc(O)c(C(=O)O)c2)ccc1O [Olsalazine Sodium] | 1.016 ± 0.0059 |
| C[C@]1(O)C[C@@H](c2nc(-c3ccc4ccc(-c5ccccc5)nc4c3)c3c(N)nccn32)C1 [OSI-906 (Linsitinib)] | 1.08 ± 0.019 |
| O=C(C1CCCCC1)N1CC(=O)N2CCc3ccccc3C2C1 (centres undefined) [Praziquantel] | 1.08 ± 0.025 |
| C[C@@H]1CCO[C@H]2Cn3cc(C(=O)NCc4ccc(F)cc4F)c(=O)c(O)c3C(=O)N12 | 1.09 ± 0.059 |
| COc1cc(C=CC(=O)N2CCC=CC2=O)cc(OC)c1OC [Piperlongumine] | 0.392 ± 0.035 |
| COc1ccc2c(c1)c(CC(=O)O)c(C)n2C(=O)c1ccc(Cl)cc1 [Indomethacin] | 1.06 ± 0.11 |
| Nc1nc2ccc(OC(F)(F)F)cc2s1 [Riluzole] | 1.062 ± 0.0062 |
| CN1CCC(=C2c3ccccc3CCc3cccnc32)CC1 [Azatadine dimaleate] | 1.03 ± 0.012 |
| OC[C@H]1O[C@H](O[C@]2(CCl)O[C@H](CCl)[C@@H](O)[C@@H]2O)[C@H](O)[C@@H](O)[C@H]1Cl [Sucralose] | 1.11 ± 0.16 |
| CNC(=O)c1cc(Oc2ccc(NC(=O)Nc3cc(C(C)(C)C)nn3-c3ccc4ncccc4c3)c(F)c2)ccn1 [DCC-2036 (Rebastinib)] | 0.991 ± 0.03 |
| CC(C)C[C@H](NC(=O)[C@@H](NC(=O)c1cccc(-c2ccccc2)n1)[C@@H](C)O)B(O)O | 0.3687 ± 0.0033 |
| CCc1cc(Nc2nccc(-c3c(-c4ccc(OC)c(C(=O)Nc5c(F)cccc5F)c4)nc4ccccn34)n2)c(OC)cc1N1CCC(N2CCN(S(C)(=O)=O)CC2)CC1 | 1 ± 0.058 |
| Nc1ccn([C@H]2CC[C@@H](CO)O2)c(=O)n1 [Zalcitabine] | 1.15 ± 0.019 |
| O=C(Nc1ccccc1C(=O)NC1CCCCNC1=O)c1cc2ccccc2s1 (centres undefined) | 0.955 ± 0.061 |
| C[C@@H](O)[C@H]1C(=O)N2C(C(=O)O)=C(S[C@@H]3CN[C@H](CNS(N)(=O)=O)C3)[C@H](C)[C@H]12 [Doripenem Hydrate] | 1.16 ± 0.21 |
| CC(C)(C#N)c1cc(Cn2cncn2)cc(C(C)(C)C#N)c1 [Anastrozole] | 1.1 ± 0.11 |
| COc1cc2nccc(Oc3ccc(NC(=O)Nc4cc(C)on4)c(Cl)c3)c2cc1OC [Tivozanib (AV-951)] | 1.2 ± 0.016 |

| Compound | relative cell viability |
| --- | --- |
| CN(C)CCOC(C)(c1ccccc1)c1ccccn1 (centres undefined) [Doxylamine Succinate] | 1.28 ± 0.022 |
| C=CCNC(N)=S [Allylthiourea] | 1.27 ± 0.073 |
| CNC(=O)c1cccc(-c2ccc3c(N4CCOC[C@@H]4C)nc(N4CCOC[C@@H]4C)nc3n2)c1 | 0.645 ± 0.018 |
| COc1cccc(-c2cc(=O)c3ccccc3o2)c1N | 1.21 ± 0.026 |
| O=C(CCc1ccc(O)cc1)c1c(O)cc(O)cc1O [Phloretin] | 1.11 ± 0.015 |
| CC[C@H](C)[C@H](N)C1=N[C@H](C(=O)N[C@@H](CC(C)C)C(=O)N[C@H](CCC(=O)O)C(=O)N[C@H](C(=O)N[C@H]2CCCCNC(=O)[C@H](CC(N)=O)NC(=O)[C@@H](CC(=O)O)NC(=O)[C@H](Cc3cnc[nH]3)NC(=O)[C@@H](Cc3ccccc3)NC(=O)[C@H]([C@@H](C)CC)NC(=O)[C@@H](CCCN)NC2=O)[C@@H](C)CC)CS1 [Bacitracin] | 1.143 ± 0.0022 |
| CN(CC(=O)N(Cc1ccc(C2CCCCC2)cc1)c1ccc(C(=O)O)cc1)S(=O)(=O)c1c(F)c(F)c(F)c(F)c1F | 0.2808 ± 0.0021 |
| OC(CNCC(O)C1CCc2cc(F)ccc2O1)C1CCc2cc(F)ccc2O1 (centres undefined) [Nebivolol] | 0.889 ± 0.012 |
| O=C(NCc1ccccc1)c1csc(Nc2ccncn2)n1 [Thiazovivin] | 1.27 ± 0.18 |
| CNC[C@H](O)c1ccc(O)c(O)c1 [Epinephrine Bitartrate] | 0.964 ± 0.065 |
| CNC[C@H](O)c1ccc(O)c(O)c1 [Epinephrine HCl] | 1.13 ± 0.03 |
| CN1CCN(CCCN2c3ccccc3Sc3ccc(C(F)(F)F)cc32)CC1 [Trifluoperazine 2HCl] | 1.11 ± 0.07 |
| CNCc1ccc(-c2cc(-c3nc(-c4ccc(S(=O)(=O)C(C)C)cc4)cnc3N)on2)cc1 | 0.693 ± 0.048 |
| CC(S)C(=O)NCC(=O)O (centres undefined) [Tiopronin] | 1.1 ± 0.015 |
| C[C@@H]1COCCN1c1cc(C2(S(C)(=O)=O)CC2)nc(-c2cccc3[nH]ccc23)n1 | 0.637 ± 0.031 |
| Cc1cc2c(F)c(Oc3ncnn4cc(OC[C@@H](C)OC(=O)[C@H](C)N)c(C)c34)ccc2[nH]1 | 0.986 ± 0.16 |
| O=c1[nH]c(=O)n(C2CCCO2)cc1F (centres undefined) | 1.3 ± 0.11 |
| CCOC(=O)Nc1cc(-c2ccc(C)c(NS(C)(=O)=O)c2)nn2c(C)nnc12 [Bromosporine] | 0.739 ± 0.024 |
| C#CC[C@H](c1nc2cc(Cl)ccc2c(=O)n1Nc1ccccc1)N(CCCN)C(=O)c1cccc(Cl)c1F | 0.989 ± 0.035 |
| C[C@@H]1CCN(C(=O)CC#N)C[C@@H]1N(C)c1ncnc2[nH]ccc12 | 1.03 and 1.11 |
| O=S(=O)(O)NC1CCCCC1 [Cyclamic  acid] | 1.26 ± 0.21 |
| O=C(NCCO)c1cccc(-c2cc(Nc3ccc(OC(F)(F)F)cc3)ncn2)c1 | 1.15 ± 0.042 |
| COCC[n+]1c2c(n(Cc3cnccn3)c1C)C(=O)c1ccccc1C2=O [YM155 (Sepantronium Bromide)] | 0.111 ± 0.0058 |
| COc1ccc([C@]2(C#N)CC[C@@H](C(=O)O)CC2)cc1OC1CCCC1 [Cilomilast] | 1.04 ± 0.069 |
